Results reported in the BET-seq Pho4 binding data (Le et al. 2018).
The other results are listed elsewhere or left out. Values were computed here from the reads of four pooled replicates and scatter widely.

Target: T1, Pho4 (S. cerevisiae) (UniProt P07270)
T1 sequence: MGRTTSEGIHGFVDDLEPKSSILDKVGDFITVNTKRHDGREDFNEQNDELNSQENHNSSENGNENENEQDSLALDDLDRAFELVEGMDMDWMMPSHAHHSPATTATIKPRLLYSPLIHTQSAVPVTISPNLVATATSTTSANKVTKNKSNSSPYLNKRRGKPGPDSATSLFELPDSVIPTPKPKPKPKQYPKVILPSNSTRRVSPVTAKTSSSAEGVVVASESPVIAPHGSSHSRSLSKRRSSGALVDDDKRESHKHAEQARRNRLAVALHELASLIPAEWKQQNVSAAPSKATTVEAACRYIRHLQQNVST
Test: relative binding free energy (BET-seq); higher = weaker binding
Conditions: reference: library average

Sequence	relative binding free energy [kcal/mol]
GGGTGCACGTGTCGCT	-0.04
AACCGCACGTGGTGGG	-0.11
TGAGTCACGTGGTTCT	0.13
TGATACACGTGGCGGC	0.03
AAGTACACGTGTGGGC	0.04
TTGAACACGTGATTAT	0.19
GAGGGCACGTGGAGTG	-0.09
ACTGGCACGTGGTGAA	-0.12
CATGTCACGTGTGCGG	-0.05
TGGGACACGTGTAGAT	0.26
ACTTTCACGTGGGTAA	0.27
AGTGACACGTGAATTT	0.26
AGACTCACGTGTGTTA	0.24
AGGGACACGTGGGAGA	-0.08
GTCACCACGTGTGGTG	-0.05
CGTTGCACGTGCTGTG	-0.01
CTAGTCACGTGGGGGA	0
GTAATCACGTGTGTGG	0.2
AGGGGCACGTGATTCA	0.03
TGGCGCACGTGTGGAG	0.04
GGCCTCACGTGTTGGT	0.19
TGGCGCACGTGGGATA	-0.14
GAAGGCACGTGTGGTT	-0.03
GTGTCCACGTGTGAGT	0.16
TTGAGCACGTGTTTGC	-0.05

Sequence	relative binding free energy [kcal/mol]
CGGTACACGTGGTATG	-0.04
TTATGCACGTGCTCTT	-0.09
TATAGCACGTGACGTT	0.25
TTAAACACGTGCTTGT	-0.01
TATGGCACGTGCCGGT	-0.16
TTATTCACGTGGGGGT	0.1
ATTCGCACGTGAAGTG	0.12
GATGTCACGTGTCATG	0.28
AAGTGCACGTGTGGAG	-0.02
GTGCGCACGTGTTAGT	-0.08
CTGTTCACGTGGTGAG	0.17
TGTATCACGTGTGGTA	0.16
GTTGGCACGTGGCACG	-0.29
ATTAGCACGTGGGTAG	-0.18
AGTGTCACGTGCTGCG	-0.1
TTTTTCACGTGGACTA	0.32
TCTTTCACGTGTGGTT	0.35
TAGATCACGTGAAGTT	0.31
ATTTTCACGTGTTCAG	0.07
TGAAGCACGTGGTCAA	-0.02
ATTTTCACGTGAGATG	0.35
AGTGTCACGTGAAAGA	0.18
GGGGACACGTGGTGGC	0.03
TAAATCACGTGCTGGT	0.05
CTTGTCACGTGGTGGC	0.09

Sequence	relative binding free energy [kcal/mol]
ATGGCCACGTGGTAGT	-0.03
CATGGCACGTGAGATG	0.1
GTCGTCACGTGAGGAA	0.33
TTATTCACGTGCTTTG	0.26
TAATACACGTGATGTT	0.05
TGCGGCACGTGAGCTG	0.07
GGTAACACGTGTTGTT	0.06
GGAGGCACGTGGGAGA	-0.17
ATTTGCACGTGCTTTA	-0.16
CCTTTCACGTGCGGGT	0.27
GTTGACACGTGTGGTT	0.11
TGTTGCACGTGGTCGC	-0.2
GCTGGCACGTGCTGTT	-0.09
ATTTACACGTGGTGTC	0.13
GTGTCCACGTGGATTT	0.02
CTGGTCACGTGGGTTA	0.02
GGTTTCACGTGTTAGC	0.33
GAGTACACGTGTATTG	0.02
TGGCACACGTGTAAGG	0.12
CGAATCACGTGATGTT	0.27
GTTGGCACGTGGTATA	-0.24
GTTTTCACGTGGGATT	0.26
GCTTTCACGTGGGTGT	0.11
GTATGCACGTGGAATG	0.07
GGGTTCACGTGCCGTT	0.38

Sequence	relative binding free energy [kcal/mol]
TTGAGCACGTGTAGAT	0.07
CTGGACACGTGGATGG	0.07
GGTAGCACGTGTTGAG	0.02
GATCGCACGTGGGTAG	-0.12
CTGAGCACGTGATGGT	0.18
GTATCCACGTGTTGTA	0.11
TGCAGCACGTGTTTGT	0
GGCATCACGTGCTGGG	0.05
AGGGTCACGTGCGAGG	0.17
GCATTCACGTGGGGTC	0.16
TGTCTCACGTGGATGT	0.2
TGTCGCACGTGTTGTG	-0.01
TGTGTCACGTGGATCA	-0.02
GAAGGCACGTGGTCAT	-0.09
AGTCGCACGTGGGAAG	-0.19
TTGCTCACGTGTCGGG	0.22
AGTGTCACGTGGCACG	-0.09
CGGTTCACGTGGATAT	0.26
TTAGTCACGTGCTATA	-0.11
GAGTACACGTGATGTA	0.32
TAGATCACGTGAGGCG	0.32
GTAGTCACGTGGGTCG	0.12
CGTTTCACGTGTTGGG	0.25
TTTTCCACGTGTCGTA	0.17
GACAACACGTGTGGGG	0.1

Sequence	relative binding free energy [kcal/mol]
TGGTCCACGTGTTGGT	-0.02
GGGGTCACGTGGGCTG	0.01
GCGTACACGTGGTGTC	0.13
TGTGTCACGTGATGTT	0.2
TTGGTCACGTGCGGTA	0.09
TGAATCACGTGTGATG	0.14
CTTGACACGTGTGTGT	-0.02
TGTTGCACGTGGAATC	0.08
CTTTTCACGTGTAGGG	0.3
AACTTCACGTGTTTTT	0.19
TCTTGCACGTGCGTGT	-0.11
TGTTCCACGTGTTCGT	0.06
GATCACACGTGTTTGG	0.18
ATATCCACGTGTGATT	0.1
GGATCCACGTGAGTGG	0.26
GGTCGCACGTGGGGTC	-0.11
GGGGGCACGTGTGCTG	-0.05
TTTAGCACGTGGTCCT	-0.12
CGGTACACGTGGGGTG	-0.1
TAAGGCACGTGGATGT	-0.11
TCGTGCACGTGGTGGT	-0.12
TTAGACACGTGAGTAT	0.13
GGGTTCACGTGTTCAT	0.32
ATTCTCACGTGAGTGA	0.39
GAGGTCACGTGTGGGA	0.26

Sequence	relative binding free energy [kcal/mol]
AAGTCCACGTGTTGGG	0
AAGTGCACGTGGAAGA	0.06
CATTTCACGTGAGTGT	0.29
AAGTGCACGTGGTTTT	-0.18
CTAAGCACGTGGTTTA	-0.12
TAATGCACGTGCATTA	0.06
TGATTCACGTGGGAGA	0.27
AGGCGCACGTGGGGAA	-0.13
CGCATCACGTGAGGGT	0.29
GATATCACGTGCGGGT	0.06
TGATTCACGTGGACTG	0.33
TGGTTCACGTGTAATG	0.26
GTTTGCACGTGAGAAA	0.39
AAGTTCACGTGTTTGG	0.2
GGTATCACGTGTAGGC	0.17
CGTATCACGTGGGTGG	-0.02
TTTTTCACGTGGGTTA	0.31
AGTGGCACGTGGGAAG	-0.11
CGAGACACGTGTTTTT	0.15
GTTCACACGTGTGGGA	0.16
TTGATCACGTGGCGGT	0.01
